Structures are written as SMILES. Several values for one entry are separate records, joined by “and”; a condition that tells them apart may be missing. Equal entries are not always repeated.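 Compound exposure: 48 hours, 5 concentrations, 96-well plates. GI50 marks 50% less growth. TGI: total growth inhibition.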 A value given as a limit tells only on which side of the number the result lay.

The test has as its system NCI-H322M lung. Nature of the test: NCI-60 cell line screen, 48 h.
Turning to `Nn1c(=S)[nH]nc(/C=C/c2c(O)ccc3ccccc23)c1=O`, the TGI came out at 42 µM.

For `CC(=O)OCc1cc2c(s1)C(=O)c1sccc1C2=O`, the TGI is 1.71 µM.

For `ClCc1ccc(Cn2cnc3nc(Cl)nc(Cl)c32)cc1`, the GI50 was 1.13 µM and the TGI is 2.56 µM.

Compound `O=C1CSC(c2cccc(Oc3ccccc3)c2)N1c1cc(Cl)ccc1Cl` (stereo not given) gave a TGI above 100 µM.

As for `CC(C)=C[C@@H]1C[C@H](C)[C@H]2CC[C@H](C)[C@H]3C(=O)C(O)=C(C)C(=O)[C@]123`, the TGI is above 100 µM.

As for `Cc1ccc(C(=O)C2CC3(CCC2(O)c2ccc(C)cc2)CC(=O)Nc2ccccc2C3=O)cc1` (stereo not given), the TGI is above 100 µM.

`CCOP(=O)(OCC)/C(C#N)=C(\C)c1ccco1`: the TGI was above 10 µM.

`COC(=O)c1ccccc1NCc1cc(O)ccc1O` showed a TGI above 100 µM.

`Cc1cc2c(=O)cc(-c3ccncc3)oc2c(C(=O)O)c1C` showed a TGI above 100 µM.

Turning to `Cc1cccc2c1Oc1ncccc1C2NC(=O)CN(C)C` (stereo not given), the TGI is above 10 µM.

In turn, `CCCCCCCCCCCCCCCC(=O)NCC(OCC)OCC` displayed a TGI above 100 µM.

In turn, `CCCSC1=N/C(=C\c2ccco2)C(=O)N1` gave a TGI above 100 µM.

Regarding `COc1ccc(/[N+]([O-])=C/c2ccccc2OC(=S)S)cc1`, the TGI is above 100 µM.

On to `Cc1c(-c2ccc(N3CCc4cccc(C(=O)Nc5nc6ccccc6s5)c4C3)nc2C(=O)O)cnn1CC12CC3CC(CC(C3)C1)C2`, for which the GI50 was 4.2 µM and the TGI came out at 18.3 µM.

`CCc1n[nH]c(=O)n1-c1ccncc1` gave a TGI above 100 µM.

On to `COc1cc2nccc(Oc3ccc(NC(=O)C4(C(=O)Nc5ccc(F)cc5)CC4)cc3)c2cc1OC`, for which the GI50 is > 10 µM and 4.85 µM; the TGI was > 10 µM and 55.6 µM.

In turn, `CCOC(=O)NC/C=C/CO` registered a TGI above 100 µM.

The compound `O=C(C[N+]1(c2ccccc2)CCOCC1)c1ccccc1` showed a TGI above 100 µM.

Take `CN(C)c1ccc(/C=C2\CCCCCC2=O)cc1`: the TGI was above 100 µM.

In turn, `N/N=C(\N)SCc1ccc(N=C=S)cc1` registered a TGI above 100 µM.

On to `COC(=O)C1CCC(=S)N1C(C)=O` (stereo not given), for which the TGI is above 100 µM.

In the case of `COc1ccc(N=C(SSC(=Nc2ccc(OC)cc2)c2ccc([N+](=O)[O-])o2)c2ccc([N+](=O)[O-])o2)cc1`, the TGI came out at 3.1 µM.

For `Nc1ccc(N)c2c1C(=O)c1cccc([N+](=O)[O-])c1C2=O`, the GI50 is 0.622 µM and the TGI amounted to 6.61 µM.

For `COc1c(-c2nc3nc(N4CCN(C)CC4)ccc3[nH]2)cc(OC)c2c1nc(CCl)n2C`, the TGI is above 100 µM.

With `Cn1ncc2c(c1=O)Nc1ccccc1S2(=O)=O`, the TGI was above 100 µM.

In the case of `O=[N+]([O-])c1cccc(C2=NOC3CCCC23)c1` (stereo not given), the TGI is above 100 µM.

Take `Cc1c2cc[n+](C)cc2c(C)c2c1[nH]c1ccc(Oc3ccccc3)cc12`: the GI50 was 18.1 µM and 5.61 µM; the TGI is > 100 µM and 29.2 µM.

Take `O=C(/C=C/N1CCN(c2cccc(Cl)c2)CC1)c1ccc(Cl)cc1`: the GI50 was 30.5 µM and the TGI is above 100 µM.

`CCOC(=O)N/N=C(/N)Cc1ccc(Cl)cc1` gave a TGI above 100 µM.

`O=C(CO[N+](=O)[O-])OCC(=O)c1ccccc1` returned a TGI above 100 µM.

In turn, `NC1CC(n2ccc(=O)[nH]c2=O)OC1C(O)CO` (stereo not given) had a TGI above 100 µM.

Regarding `Cc1cc2c(SCc3ccccc3Cl)nc(N)nc2nc1C`, the TGI is above 100 µM.

For the compound `C/C(=N\NC(=O)c1ccncc1)c1ccccc1O`, the GI50 is 2.06 µM and the TGI was above 100 µM.

Turning to `N=c1sc(N2CCOCC2)nn1CC(=O)c1ccccc1`, the TGI was above 100 µM.

In turn, `Nc1nc(N)c2ncn(Cc3ccccc3)c2n1` gave a TGI above 100 µM.

`O=C(CCc1ccccc1)NCCc1ccc(O)c(O)c1`: the TGI is above 100 µM.

On to `Cc1c(N)nc(C2CC(=O)N2CC(N)C(N)=O)nc1C(=O)NC(C(=O)NC(C)C(O)C(C)C(=O)NC(C(=O)NCCc1nc(-c2nc(C(=O)NCCNCC(C)O)cs2)cs1)C(C)O)C(OC1OC(CO)C(O)C(O)C1OC1OC(CO)C(O)C(OC(N)=O)C1O)c1cnc[nH]1` (stereo not given), for which the GI50 was above 50 µM and the TGI was above 100 µM.

The compound `O=C(/C=C/c1ccc(OCC(=O)N2CCN(c3ccccc3)CC2)cc1)c1ccccc1` yielded a TGI above 89.6 µM.

With `Cn1c(=O)c(-c2c(Cl)cccc2Cl)cc2cnc(Nc3ccc(N4CCOCC4)cc3)nc21`, the GI50 was 0.564 µM and the TGI came to 4.69 µM.

`COc1ccc(NC(=S)Nc2cccc(C)n2)cc1` registered a TGI above 100 µM.

Consider `CC1SCCc2nc3ccccc3n21` (stereo not given), for which the TGI is above 100 µM.

`COC(=O)C1=C(C)N(NC(=O)Nc2ccccc2)C2(N)N(NC(=O)Nc3ccccc3)C(C)=C(C(=O)OC)C12C(=O)OC` (stereo not given) registered a TGI above 100 µM.

In the case of `FC(F)(Sc1nc2ccccc2[nH]1)c1nc2ccccc2o1`, the TGI was above 100 µM.

The compound `C[C@@H](c1ccccc1)N(CC#N)[C@H]1CCC[C@]1(O)/C=C/c1ccc2c(c1)OCO2` yielded a TGI above 25 µM.

In turn, `Oc1[nH]c2ccccc2c1N=Nc1nc(-c2ccccc2)cs1` returned a TGI above 100 µM.

In the case of `O=C(c1ccccc1)c1ccc(N2C(=O)C3C4c5ccccc5C(/C=C/C(=O)c5ccccn5)(c5ccccc54)C3C2=O)cc1` (stereo not given), the GI50 is 5.75 µM and the TGI is above 100 µM.

On to `Cc1c(C(=O)C/C(=N/NC(=O)CC#N)C(N)=O)[n+](=O)c2ccccc2n1[O-]`, for which the TGI was above 100 µM.

`N#Cc1c2c(c(Nc3ccc(Cl)cc3)n3c1nc1ccccc13)CCCC2` yielded a TGI above 100 µM.

The compound `Cc1[nH]n(C(=O)c2ccc(Cl)cc2)c(=O)c1/C=C1\C(O)=CC(=O)c2ccccc21` registered a TGI above 100 µM.

Turning to `CC1=CC(=O)N2[C@H](OC[C@@H]2C(C)C)O1`, the TGI was above 100 µM.

`CNc1nc(OC)c2c(n1)[n+](C)cn2C` registered a TGI above 100 µM.

In turn, `COc1ccc(OC)c2c(Nc3ccc(S(=O)(=O)O)c4cc(S(=O)(=O)O)cc(S(=O)(=O)O)c34)cc(C)nc12` showed a TGI above 100 µM.

Consider `CC(=O)OC1CCC2(C)C(=CCC3C4CC(CN5CC5)C(=O)C4(C)CCC32)C1` (stereo not given), for which the GI50 is 13.9 µM and the TGI was found to be 27 µM.

Turning to `CNC(=O)N(C)C(=O)c1ccccc1C(=O)N(C)C(=O)NC`, the TGI was above 10 µM.

Take `COc1cc(CC2C(=O)OCC2Cc2ccc(OC)c(OC)c2)ccc1O` (stereo not given): the TGI is above 100 µM.

In turn, `O=C1C[C@@]23CCC4(CC2=CCC[C@H]3O1)OCCO4` showed a TGI above 100 µM.

As for `O=C(Nc1cccc(C(F)(F)F)c1)Nc1cc(S(=O)(=O)NC2CC2)ccc1-c1ccsc1`, the GI50 was 6.03 µM and the TGI stood at 21.3 µM.

For the compound `CCn1c(SC)nnc1-c1cc2c([nH]c3ccccc32)c(-c2cccc(O)c2)n1`, the GI50 was 4.42 µM and the TGI worked out at 44.7 µM.

As for `Nc1nc(N)c(-c2ccccc2)c(C(=O)Nc2nccs2)n1`, the TGI was above 100 µM.

Consider `CCCCCNC(=O)OC1CCn2c1nc1c2C(=O)C(C)=C(N2CC2)C1=O` (stereo not given), for which the TGI came out at 4.62 µM.

Consider `NC(=O)NC(=O)C1CCC(=O)N1S(=O)(=O)c1ccc(Cl)cc1` (stereo not given), for which the TGI was above 100 µM.

`NS(=O)(=O)C1CCCCC1C(=O)NNC(=O)C(=O)Nc1nc(=S)[nH][nH]1` (stereo not given) returned a TGI above 100 µM.
